# The list shows a part of the results.
# B1: HPAIIITrx (Helix pomatia), Q1KM18 (protein)
# chain: MLFVTIISLGLLAIVHGQCALKTIAFSAAIDREQTFDANQVVIYDIVITNHGNAYDNSTGLFTAPVDGMYSFQLNLLTIKEKEGWLELVHNGQLKVSVYAKQDSTYDSSSNSVIIKMKEGDRVNVRAHKKSGLFGRDDELYNTFSGHFLSGL
# Columns and labels:
# Assay in all cases: glycan array binding signal (z-score within array); higher = stronger binding
# Conditions in all cases: glycan notation: IUPAC condensed, linker removed
# [1] = biological target: Gal(b1-3)GlcNAc(b1-3)Gal(b1-3)GlcNAc
# Method in brief: (§1)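 The binding signal is a Z-score computed within each array. Data were drawn from 3228 arrays in the Consortium for Functional Glycomics database, restricted to those with a known protein sequence. Scores were averaged over arrays of the same protein sequence at different concentrations or buffers, and over linkers, and negative values can be taken as non-binding.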
# [2] = biological target: Gal(b1-3)GlcNAc(b1-3)Gal(b1-4)Glc
# Method in brief: as §1
# [3] = biological target: Gal(b1-3)GlcNAc(b1-3)Gal(b1-4)GlcNAc
# Method in brief: as §1
# [4] = biological target: Gal(b1-3)GlcNAc(b1-3)Gal(b1-4)GlcNAc(b1-2)Man(a1-3)[Gal(b1-3)GlcNAc(b1-3)Gal(b1-4)GlcNAc(b1-2)Man(a1-6)]Man(b1-4)GlcNAc(b1-4)GlcNAc
# Method in brief: as §1
# [5] = biological target: Gal(b1-3)GlcNAc(b1-3)Gal(b1-4)GlcNAc(b1-2)[Gal(b1-3)GlcNAc(b1-3)Gal(b1-4)GlcNAc(b1-6)]Man(a1-6)[Gal(b1-3)GlcNAc(b1-3)Gal(b1-4)GlcNAc(b1-2)Man(a1-3)]Man(b1-4)GlcNAc(b1-4)[Fuc(a1-6)]GlcNAc
# Method in brief: as §1
# [6] = biological target: Gal(b1-3)GlcNAc(b1-3)Gal(b1-4)GlcNAc(b1-3)Gal(b1-4)GlcNAc(b1-2)[Gal(b1-3)GlcNAc(b1-3)Gal(b1-4)GlcNAc(b1-3)Gal(b1-4)GlcNAc(b1-6)]Man(a1-6)[Gal(b1-3)GlcNAc(b1-3)Gal(b1-4)GlcNAc(b1-3)Gal(b1-4)GlcNAc(b1-2)Man(a1-3)]Man(b1-4)GlcNAc(b1-4)[Fuc(a1-6)]GlcNAc
# Method in brief: as §1
# [7] = biological target: Gal(b1-3)GlcNAc(b1-3)Gal(b1-4)GlcNAc(b1-6)[Gal(b1-3)GlcNAc(b1-3)]Gal(b1-4)Glc
# Method in brief: as §1
# [8] = biological target: Gal(b1-3)GlcNAc(b1-3)Gal(b1-4)[Fuc(a1-3)]GlcNAc
# Method in brief: as §1
# [9] = biological target: Gal(b1-3)GlcNAc(b1-3)Gal(b1-4)[Fuc(a1-3)]GlcNAc(b1-6)[Gal(b1-3)GlcNAc(b1-3)]Gal(b1-4)Glc
# Method in brief: as §1
# [10] = biological target: Gal(b1-3)GlcNAc(b1-3)GalNAc
# Method in brief: as §1
# [11] = biological target: Gal(b1-3)GlcNAc(b1-6)Gal(b1-4)GlcNAc
# Method in brief: as §1
# [12] = biological target: Gal(b1-3)GlcNAc(b1-6)GalNAc
# Method in brief: as §1
# [13] = biological target: Gal(b1-3)GlcNAc(b1-6)[Gal(b1-3)]GalNAc
# Method in brief: as §1
# Gal(b1-3)GlcNAc6S = biological target: Gal(b1-3)GlcNAc6S
# Method in brief: as §1
# [14] = biological target: Gal(b1-3)[Fuc(a1-4)]GlcNAc
# Method in brief: as §1
# [15] = biological target: Gal(b1-3)[Fuc(a1-4)]GlcNAc(b1-2)Man
# Method in brief: as §1
# [16] = biological target: Gal(b1-3)[Fuc(a1-4)]GlcNAc(b1-2)Man(a1-3)[Gal(b1-3)[Fuc(a1-4)]GlcNAc(b1-2)Man(a1-6)]Man(b1-4)GlcNAc(b1-4)GlcNAc
# Method in brief: as §1
# [17] = biological target: Gal(b1-3)[Fuc(a1-4)]GlcNAc(b1-2)Man(a1-3)[Gal(b1-3)[Fuc(a1-4)]GlcNAc(b1-2)Man(a1-6)]Man(b1-4)GlcNAc(b1-4)[Fuc(a1-6)]GlcNAc
# Method in brief: as §1
# [18] = biological target: Gal(b1-3)[Fuc(a1-4)]GlcNAc(b1-3)Gal(b1-3)[Fuc(a1-4)]GlcNAc
# Method in brief: as §1
# [19] = biological target: Gal(b1-3)[Fuc(a1-4)]GlcNAc(b1-3)Gal(b1-4)GlcNAc
# Method in brief: as §1
# [20] = biological target: Gal(b1-3)[Fuc(a1-4)]GlcNAc(b1-3)Gal(b1-4)[Fuc(a1-3)]GlcNAc
# Method in brief: as §1
# [21] = biological target: Gal(b1-3)[Fuc(a1-4)]GlcNAc(b1-6)GalNAc
# Method in brief: as §1
# [22] = biological target: Gal(b1-3)[GlcNAc(b1-6)]GalNAc
# Method in brief: as §1
# [23] = biological target: Gal(b1-3)[Neu5Ac(a2-6)]GalNAc
# Method in brief: as §1
# [24] = biological target: Gal(b1-3)[Neu5Ac(a2-6)]GlcNAc(b1-4)Gal(b1-4)Glc
# Method in brief: as §1
# [25] = biological target: Gal(b1-3)[Neu5Ac(a2-6)]GlcNAc(b1-6)Gal(b1-4)Glc
# Method in brief: as §1
# [26] = biological target: Gal(b1-3)[Neu5Ac(b2-6)]GalNAc
# Method in brief: as §1
# Gal(b1-4)Gal = biological target: Gal(b1-4)Gal
# Method in brief: as §1
# [27] = biological target: Gal(b1-4)GalNAc(a1-3)[Fuc(a1-2)]Gal(b1-4)GlcNAc
# Method in brief: as §1
# [28] = biological target: Gal(b1-4)GalNAc(b1-3)[Fuc(a1-2)]Gal(b1-4)GlcNAc
# Method in brief: as §1
# Gal(b1-4)Glc = biological target: Gal(b1-4)Glc
# Method in brief: as §1
# Gal(b1-4)Glc6S = biological target: Gal(b1-4)Glc6S
# Method in brief: as §1
# Gal(b1-4)GlcNAc = biological target: Gal(b1-4)GlcNAc
# Method in brief: as §1
# [29] = biological target: Gal(b1-4)GlcNAc(a1-6)Gal(b1-4)GlcNAc
# Method in brief: as §1
# Gal(b1-4)GlcNAc(b1-2)Man = biological target: Gal(b1-4)GlcNAc(b1-2)Man
# Method in brief: as §1
# [30] = biological target: Gal(b1-4)GlcNAc(b1-2)Man(a1-3)Man(b1-4)GlcNAc(b1-4)GlcNAc
# Method in brief: as §1
# [31] = biological target: Gal(b1-4)GlcNAc(b1-2)Man(a1-3)[Gal(b1-4)GlcNAc(b1-2)Man(a1-6)]Man(b1-4)GlcNAc(b1-4)GlcNAc
# Method in brief: as §1
# [32] = biological target: Gal(b1-4)GlcNAc(b1-2)Man(a1-3)[Gal(b1-4)GlcNAc(b1-2)Man(a1-6)]Man(b1-4)GlcNAc(b1-4)[Fuc(a1-6)]GlcNAc
# Method in brief: as §1
# [33] = biological target: Gal(b1-4)GlcNAc(b1-2)Man(a1-3)[Gal(b1-4)GlcNAc(b1-2)Man(a1-6)][Gal(b1-4)GlcNAc(b1-4)]Man(b1-4)GlcNAc(b1-4)[Fuc(a1-6)]GlcNAc
# Method in brief: as §1
# [34] = biological target: Gal(b1-4)GlcNAc(b1-2)Man(a1-3)[Gal(b1-4)GlcNAc(b1-2)Man(a1-6)][GlcNAc(b1-4)]Man(b1-4)GlcNAc(b1-4)[Fuc(a1-6)]GlcNAc
# Method in brief: as §1
# [35] = biological target: Gal(b1-4)GlcNAc(b1-2)Man(a1-3)[GlcNAc(b1-2)Man(a1-6)]Man(b1-4)GlcNAc(b1-4)GlcNAc
# Method in brief: as §1
# [36] = biological target: Gal(b1-4)GlcNAc(b1-2)Man(a1-3)[GlcNAc(b1-4)][Gal(b1-4)GlcNAc(b1-2)Man(a1-6)]Man(b1-4)GlcNAc(b1-4)GlcNAc
# Method in brief: as §1
# [37] = biological target: Gal(b1-4)GlcNAc(b1-2)Man(a1-3)[Man(a1-6)]Man(b1-4)GlcNAc(b1-4)GlcNAc
# Method in brief: as §1
# [38] = biological target: Gal(b1-4)GlcNAc(b1-2)Man(a1-6)Man(b1-4)GlcNAc(b1-4)GlcNAc
# Method in brief: as §1
# [39] = biological target: Gal(b1-4)GlcNAc(b1-2)Man(a1-6)[GlcNAc(b1-2)Man(a1-3)]Man(b1-4)GlcNAc(b1-4)GlcNAc
# Method in brief: as §1
binder,measurement,setting,value
B1,glycan array binding signal (z-score),[1],-0.379
same,glycan array binding signal (z-score),[2],-0.309
same,glycan array binding signal (z-score),[3],-0.518
same,glycan array binding signal (z-score),[4],-0.319
same,glycan array binding signal (z-score),[5],0.381
same,glycan array binding signal (z-score),[6],0.041
same,glycan array binding signal (z-score),[7],-0.455
same,glycan array binding signal (z-score),[8],-0.391
same,glycan array binding signal (z-score),[9],-0.411
same,glycan array binding signal (z-score),[10],-0.344
same,glycan array binding signal (z-score),[11],-0.461
same,glycan array binding signal (z-score),[12],-0.368
same,glycan array binding signal (z-score),[13],-0.238
same,glycan array binding signal (z-score),Gal(b1-3)GlcNAc6S,-0.279
same,glycan array binding signal (z-score),[14],-0.091
same,glycan array binding signal (z-score),[15],0.062
same,glycan array binding signal (z-score),[16],0.733
same,glycan array binding signal (z-score),[17],0.11
same,glycan array binding signal (z-score),[18],0.166
same,glycan array binding signal (z-score),[19],0.014
same,glycan array binding signal (z-score),[20],-0.35
same,glycan array binding signal (z-score),[21],-0.267
same,glycan array binding signal (z-score),[22],-0.419
same,glycan array binding signal (z-score),[23],-0.314
same,glycan array binding signal (z-score),[24],-0.43
same,glycan array binding signal (z-score),[25],-0.165
same,glycan array binding signal (z-score),[26],-0.404
same,glycan array binding signal (z-score),Gal(b1-4)Gal,-0.094
same,glycan array binding signal (z-score),[27],-0.357
same,glycan array binding signal (z-score),[28],-0.479
same,glycan array binding signal (z-score),Gal(b1-4)Glc,-0.056
same,glycan array binding signal (z-score),Gal(b1-4)Glc6S,-0.023
same,glycan array binding signal (z-score),Gal(b1-4)GlcNAc,-0.289
same,glycan array binding signal (z-score),[29],-0.406
same,glycan array binding signal (z-score),Gal(b1-4)GlcNAc(b1-2)Man,-0.119
same,glycan array binding signal (z-score),[30],-0.279
same,glycan array binding signal (z-score),[31],-0.38
same,glycan array binding signal (z-score),[32],-0.189
same,glycan array binding signal (z-score),[33],-0.46
same,glycan array binding signal (z-score),[34],-0.468
same,glycan array binding signal (z-score),[35],-0.276
same,glycan array binding signal (z-score),[36],-0.402
same,glycan array binding signal (z-score),[37],-0.23
same,glycan array binding signal (z-score),[38],-0.23
same,glycan array binding signal (z-score),[39],-0.301
